# Over roughly 2,900 compounds, “NF-kB SEAP reporter activity, fold change vs agonist alone” has its median near 0.99; the highest 2% begin near 2.6. This is one part of the list.
# Key:
# RAW-Dual [1] = test: NF-kB SEAP reporter activity, fold change vs agonist alone; higher = enhanced NF-kB activity; settings: library stock concentration (final ~1000-fold dilution): 10 mM
# Method in brief: (§1)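 RAW-Dual macrophages were seeded in DMEM at 50,000 cells/well in 384-well plates, given 50 nL of library stock by pin tool, and given a PRR agonist 1 h later. Plates were held at 37 °C, 5% CO2 for 20 hours, after which supernatant was read for IRF by QuantiLuc luminescence and for NF-κB by QuantiBlue absorbance at 620 nm. Reporter activity is expressed as fold change over wells that received agonist alone. A well was called cytotoxic when IncuCyte confluency fell below 70% of agonist controls in both mask sets.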
# RAW-Dual [2] = test: NF-kB SEAP reporter activity, fold change vs agonist alone; cytotoxicity flag (confluency mask): not cytotoxic; higher = enhanced NF-kB activity
# Method in brief: as §1
# RAW-Dual [3] = test: NF-kB SEAP reporter activity, fold change vs agonist alone; cytotoxicity flag (confluency mask): cytotoxic (confluency <70% of control); higher = enhanced NF-kB activity; settings: agonist: LPS (TLR4) 0.1 ug/mL
# Method in brief: as §1
# [4] = cytotoxicity flag (confluency mask): not cytotoxic, agonist: Imiquimod (TLR7) […]
# [5] = cytotoxicity flag (confluency mask): not cytotoxic, agonist: MPLA (TLR4) […]
# [6] = agonist: ODN 1826 (TLR9) 0.5 ug/mL
# [7] = agonist: Pam2CSK4 (TLR2/6) 0.1 ug/mL
# [8] = agonist: Pam3CSK4 (TLR2/1) 0.1 ug/mL
smiles,measurement,setting,value
Nc1ncnc2c1ncn2C1CCCO1 (centres undefined),NF-kB SEAP reporter activity,RAW-Dual [1]; [4],0.792
same,NF-kB SEAP reporter activity,RAW-Dual [1]; [5],0.86
Nc1ncnc2c1ncn2C1CCCO1 (centres undefined) (library stock concentration (final ~1000-fold dilution): 10 mM),NF-kB SEAP reporter activity,RAW-Dual [2]; agonist: LPS (TLR4) 0.1 ug/mL,1.39
same,NF-kB SEAP reporter activity,RAW-Dual [2]; [6],0.835
same,NF-kB SEAP reporter activity,RAW-Dual [2]; [7],1.03
same,NF-kB SEAP reporter activity,RAW-Dual [2]; [8],0.983
CC1CC(C(=O)O)C2CCC3(C)C(=CCC4C5(C)CCC(O)C(C)(C)C5CCC43C)C2C1C (centres undefined) (library stock concentration (final ~1000-fold dilution): 10 mM),NF-kB SEAP reporter activity,RAW-Dual [2]; agonist: LPS (TLR4) 0.1 ug/mL,1.46
same,NF-kB SEAP reporter activity,RAW-Dual [2]; [6],0.926
same,NF-kB SEAP reporter activity,RAW-Dual [2]; [7],0.938
same,NF-kB SEAP reporter activity,RAW-Dual [2]; [8],0.898
CC1CC(C(=O)O)C2CCC3(C)C(=CCC4C5(C)CCC(O)C(C)(C)C5CCC43C)C2C1C (centres undefined),NF-kB SEAP reporter activity,RAW-Dual [1]; [4],0.951
same,NF-kB SEAP reporter activity,RAW-Dual [1]; [5],0.975
CNCCN(C)Cc1c[nH]nc1-c1ccc(OC2CC(OCCC3CCOCC3)C2)cc1.Cl.Cl (centres undefined),NF-kB SEAP reporter activity,RAW-Dual [1]; [4],0.935
same,NF-kB SEAP reporter activity,RAW-Dual [1]; [5],1.07
CNCCN(C)Cc1c[nH]nc1-c1ccc(OC2CC(OCCC3CCOCC3)C2)cc1.Cl.Cl (centres undefined) (library stock concentration (final ~1000-fold dilution): 10 mM),NF-kB SEAP reporter activity,RAW-Dual [2]; agonist: LPS (TLR4) 0.1 ug/mL,0.836
same,NF-kB SEAP reporter activity,RAW-Dual [2]; [6],0.674
same,NF-kB SEAP reporter activity,RAW-Dual [2]; [7],0.874
same,NF-kB SEAP reporter activity,RAW-Dual [2]; [8],0.586
Cc1[nH]c2ccccc2c1CCNCc1ccc(/C=C/C(=O)NO)cc1 (library stock concentration (final ~1000-fold dilution): 10 mM),NF-kB SEAP reporter activity,RAW-Dual [3],4.6
Cc1[nH]c2ccccc2c1CCNCc1ccc(/C=C/C(=O)NO)cc1,NF-kB SEAP reporter activity,"RAW-Dual [1]; cytotoxicity flag (confluency mask): cytotoxic (confluency <70% of control), agonist: MPLA (TLR4) […]",2.63
COc1ccnc(C[S+]([O-])c2nc3cc(OC(F)F)ccc3[nH]2)c1OC (centres undefined),NF-kB SEAP reporter activity,RAW-Dual [1]; [4],0.898
same,NF-kB SEAP reporter activity,RAW-Dual [1]; [5],1.02
COc1ccnc(C[S+]([O-])c2nc3cc(OC(F)F)ccc3[nH]2)c1OC (centres undefined) (library stock concentration (final ~1000-fold dilution): 10 mM),NF-kB SEAP reporter activity,RAW-Dual [2]; agonist: LPS (TLR4) 0.1 ug/mL,0.981
same,NF-kB SEAP reporter activity,RAW-Dual [2]; [6],0.923
same,NF-kB SEAP reporter activity,RAW-Dual [2]; [7],0.959
same,NF-kB SEAP reporter activity,RAW-Dual [2]; [8],0.966
Cc1cc(C)c(S(=O)(=O)n2cc(C)cc2C)c(C)c1 (library stock concentration (final ~1000-fold dilution): 10 mM),NF-kB SEAP reporter activity,RAW-Dual [2]; agonist: LPS (TLR4) 0.1 ug/mL,1.7
same,NF-kB SEAP reporter activity,RAW-Dual [2]; [6],0.758
same,NF-kB SEAP reporter activity,RAW-Dual [2]; [7],0.761
same,NF-kB SEAP reporter activity,RAW-Dual [2]; [8],0.902
Cc1cc(C)c(S(=O)(=O)n2cc(C)cc2C)c(C)c1,NF-kB SEAP reporter activity,RAW-Dual [1]; [4],0.822
same,NF-kB SEAP reporter activity,RAW-Dual [1]; [5],0.971
C=CC(=O)Nc1ccc(CN2C(=O)N(c3cc(OC)cc(OC)c3)Cc3cnc(Nc4ccc(N5CCN(C)CC5)cc4)nc32)cc1 (library stock concentration (final ~1000-fold dilution): 10 mM),NF-kB SEAP reporter activity,RAW-Dual [2]; agonist: LPS (TLR4) 0.1 ug/mL,0.451
same,NF-kB SEAP reporter activity,RAW-Dual [2]; [6],0.376
same,NF-kB SEAP reporter activity,RAW-Dual [2]; [7],0.217
same,NF-kB SEAP reporter activity,RAW-Dual [2]; [8],0.323
C=CC(=O)Nc1ccc(CN2C(=O)N(c3cc(OC)cc(OC)c3)Cc3cnc(Nc4ccc(N5CCN(C)CC5)cc4)nc32)cc1,NF-kB SEAP reporter activity,RAW-Dual [1]; [4],0.353
same,NF-kB SEAP reporter activity,RAW-Dual [1]; [5],0.768
O=C(O)[C@H]1O[C@@H](Oc2cc3oc(-c4ccccc4)cc(=O)c3c(O)c2O)[C@H](O)[C@@H](O)[C@@H]1O,NF-kB SEAP reporter activity,RAW-Dual [1]; [4],0.81
same,NF-kB SEAP reporter activity,RAW-Dual [1]; [5],1.06
O=C(O)[C@H]1O[C@@H](Oc2cc3oc(-c4ccccc4)cc(=O)c3c(O)c2O)[C@H](O)[C@@H](O)[C@@H]1O (library stock concentration (final ~1000-fold dilution): 10 mM),NF-kB SEAP reporter activity,RAW-Dual [2]; agonist: LPS (TLR4) 0.1 ug/mL,1.14
same,NF-kB SEAP reporter activity,RAW-Dual [2]; [6],1.07
same,NF-kB SEAP reporter activity,RAW-Dual [2]; [7],1.16
same,NF-kB SEAP reporter activity,RAW-Dual [2]; [8],0.883
Cn1cc(-c2ccncc2)c(-c2ccc(OCc3ccc4ccccc4n3)cc2)n1 (library stock concentration (final ~1000-fold dilution): 10 mM),NF-kB SEAP reporter activity,RAW-Dual [2]; agonist: LPS (TLR4) 0.1 ug/mL,1.25
same,NF-kB SEAP reporter activity,RAW-Dual [2]; [6],0.979
same,NF-kB SEAP reporter activity,RAW-Dual [2]; [7],0.704
same,NF-kB SEAP reporter activity,RAW-Dual [2]; [8],0.926
Cn1cc(-c2ccncc2)c(-c2ccc(OCc3ccc4ccccc4n3)cc2)n1,NF-kB SEAP reporter activity,RAW-Dual [1]; [4],1.07
same,NF-kB SEAP reporter activity,RAW-Dual [1]; [5],1.15
CCOC(=O)C(CCc1ccccc1)NC(C)C(=O)N1CCCC1C(=O)O.O=C(O)/C=C\C(=O)O (centres undefined) (library stock concentration (final ~1000-fold dilution): 10 mM),NF-kB SEAP reporter activity,RAW-Dual [2]; agonist: LPS (TLR4) 0.1 ug/mL,1.08
same,NF-kB SEAP reporter activity,RAW-Dual [2]; [6],1.04
same,NF-kB SEAP reporter activity,RAW-Dual [2]; [7],1.03
same,NF-kB SEAP reporter activity,RAW-Dual [2]; [8],1.02
CCOC(=O)C(CCc1ccccc1)NC(C)C(=O)N1CCCC1C(=O)O.O=C(O)/C=C\C(=O)O (centres undefined),NF-kB SEAP reporter activity,RAW-Dual [1]; [4],0.942
same,NF-kB SEAP reporter activity,RAW-Dual [1]; [5],1.06
Br.Cc1ccc(-c2cn3c4c(sc3n2)CCCC4)cc1 (library stock concentration (final ~1000-fold dilution): 10 mM),NF-kB SEAP reporter activity,RAW-Dual [2]; agonist: LPS (TLR4) 0.1 ug/mL,1.2
same,NF-kB SEAP reporter activity,RAW-Dual [2]; [6],0.852
same,NF-kB SEAP reporter activity,RAW-Dual [2]; [7],0.993
same,NF-kB SEAP reporter activity,RAW-Dual [2]; [8],0.801
Br.Cc1ccc(-c2cn3c4c(sc3n2)CCCC4)cc1,NF-kB SEAP reporter activity,RAW-Dual [1]; [4],0.894
same,NF-kB SEAP reporter activity,RAW-Dual [1]; [5],1.11
Nc1ccc(C(=O)Nc2cccc(-c3nc(N4CCOCC4)c4oc5ncccc5c4n3)c2)cn1 (library stock concentration (final ~1000-fold dilution): 10 mM),NF-kB SEAP reporter activity,RAW-Dual [2]; agonist: LPS (TLR4) 0.1 ug/mL,2.62
CN(C)CCCN1c2ccccc2Sc2ccc(Cl)cc21 (library stock concentration (final ~1000-fold dilution): 10 mM),NF-kB SEAP reporter activity,RAW-Dual [2]; agonist: LPS (TLR4) 0.1 ug/mL,1.12
same,NF-kB SEAP reporter activity,RAW-Dual [2]; [6],0.55
same,NF-kB SEAP reporter activity,RAW-Dual [2]; [7],0.813
same,NF-kB SEAP reporter activity,RAW-Dual [2]; [8],0.58
CN(C)CCCN1c2ccccc2Sc2ccc(Cl)cc21,NF-kB SEAP reporter activity,RAW-Dual [1]; [4],2.1
same,NF-kB SEAP reporter activity,RAW-Dual [1]; [5],1.75

# Reference: the supplement of paper PMC10037445
